In PMC4336329 (PLoS ONE, 2015):
The campaign covered roughly 310,000 compounds. About 14,000 (4.5%) showed an effect of 50% or more. Effects have a minus sign here. The list shows a part of the results.

molecular target: human ether-à-go-go-related gene (hERG) potassium channel (human, UniProt Q12809); test: primary screen, population patch clamp on CHO cells stably expressing hERG
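Further: peak tail current of the secondary pulse compared with the same well before compound.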

Chain of human ether-à-go-go-related gene (hERG) potassium channel (Q12809 whole entry, looked up): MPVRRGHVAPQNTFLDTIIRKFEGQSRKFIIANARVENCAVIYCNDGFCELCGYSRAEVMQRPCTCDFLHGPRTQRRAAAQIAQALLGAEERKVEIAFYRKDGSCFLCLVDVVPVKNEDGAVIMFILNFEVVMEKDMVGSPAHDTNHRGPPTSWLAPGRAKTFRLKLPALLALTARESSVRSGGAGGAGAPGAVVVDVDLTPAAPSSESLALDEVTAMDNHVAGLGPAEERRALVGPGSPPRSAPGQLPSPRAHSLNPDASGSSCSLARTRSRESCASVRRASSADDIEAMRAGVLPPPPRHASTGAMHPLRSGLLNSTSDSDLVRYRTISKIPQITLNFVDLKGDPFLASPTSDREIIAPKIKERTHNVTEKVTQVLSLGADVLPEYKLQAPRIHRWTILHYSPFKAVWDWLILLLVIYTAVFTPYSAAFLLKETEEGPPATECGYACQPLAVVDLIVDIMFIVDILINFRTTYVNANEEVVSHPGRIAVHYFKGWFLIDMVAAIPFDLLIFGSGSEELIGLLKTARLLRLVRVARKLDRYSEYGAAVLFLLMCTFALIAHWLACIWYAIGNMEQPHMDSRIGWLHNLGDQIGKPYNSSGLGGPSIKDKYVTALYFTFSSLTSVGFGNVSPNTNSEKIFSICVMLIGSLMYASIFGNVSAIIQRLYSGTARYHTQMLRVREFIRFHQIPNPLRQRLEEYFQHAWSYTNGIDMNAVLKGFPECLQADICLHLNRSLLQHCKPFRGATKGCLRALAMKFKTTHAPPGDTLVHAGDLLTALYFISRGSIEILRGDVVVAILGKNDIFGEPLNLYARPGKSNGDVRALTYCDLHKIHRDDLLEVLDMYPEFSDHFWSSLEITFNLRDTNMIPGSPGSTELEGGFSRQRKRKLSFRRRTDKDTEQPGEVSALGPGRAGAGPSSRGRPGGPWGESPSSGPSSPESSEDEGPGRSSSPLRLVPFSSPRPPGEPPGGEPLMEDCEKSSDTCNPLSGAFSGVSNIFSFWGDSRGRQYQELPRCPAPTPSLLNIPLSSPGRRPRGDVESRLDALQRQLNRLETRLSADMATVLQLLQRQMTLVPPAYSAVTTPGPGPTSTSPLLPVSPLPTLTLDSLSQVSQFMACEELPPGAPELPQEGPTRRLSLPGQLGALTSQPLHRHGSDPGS

SMILES | hERG current change (%, negative = inhibition) at 10uM [%]
COc1cccc(CNC(=O)CCNC(=O)c2ccccc2OC)c1 | 2.88
C=CCn1cnc2c(nnn2-c2ccc(OC)c(OC)c2)c1=O | 1.23
CN[C@@H]1C[C@@H](c2ccc(Cl)c(Cl)c2)c2ccccc21.Cl | -22.4
Cc1cc(/C=N/NC(=O)C(O)(c2ccccc2)c2ccccc2)c(C)n1-c1ccccc1 | -0.473
CN(c1ccccc1)S(=O)(=O)c1ccc(Cl)c(C(=O)OCC(N)=O)c1 | -1.85
COc1cccc(-c2csc(NNC(=O)c3cccs3)n2)c1 | -2.17
CCS(=O)(=O)n1nc(-c2ccc(Cl)cc2)nc1N | -11.4
CCCn1c(CN2CCN(C(=O)OCC)CC2)nc2c1c(=O)n(C)c(=O)n2C | 2.21
Cc1cc(NC(=O)c2ccc(F)cc2)n(-c2ccccc2)n1 | -80.2
O=S(=O)(c1cccc(Cn2nnc(-c3ccc(F)cc3)n2)c1)N1CCOCC1 | -29
COc1ccc(NC(=O)CCCNC(=O)c2ccc(Cl)cc2)cc1OC | 6.96
O=C(Nc1nccs1)c1cccc(NC(=O)C2CC2)c1 | -15.7
COc1ccc(C2SCC(=O)N2CCCN(C)C)cc1.Cl (stereo not drawn) | 3.16
CN(C)S(=O)(=O)Oc1cccc(C(=O)Nc2ccccc2Cl)c1 | -47.2
COC(=O)c1sc(NC(=O)c2ccc(C)o2)nc1C | -3.35
C=CCn1c(SC)nc2sc3c(c2c1=O)CCc1ccccc1-3 | 10.3
CC(NCc1ccccc1C(F)(F)F)C(O)c1ccccc1.Cl (stereo not drawn) | -7.73
S=c1nc(-c2cc(Cl)ccc2Cl)[nH][nH]1 | 16.4
COc1ccc(CC(=O)OCCc2cc3cc(OC)c(OC)cc3c(=O)o2)cc1 | -3.83
CC(=O)Nc1sc2c(c1C(c1ccccc1Cl)N1CCN(CCO)CC1)CCCC2 (stereo not drawn) | -25.2
CCOC(=O)c1c(NC(=O)C2COc3ccccc3O2)sc(C)c1C (stereo not drawn) | -1.9
COC(=O)/C(=C/c1ccc(F)cc1)NC(C)=O | -0.211
Cc1oc(-c2cccs2)nc1CS(=O)CC(=O)NCCCN1CC(C)CC(C)C1 (stereo not drawn) | -6.76

SMILES | hERG current change (%, negative = inhibition) at 10uM [%]
CC(=O)N(C)c1ccc(N=Nc2c(C)[nH]n(C(N)=S)c2=O)cc1 | 5.56
O=C(O)COc1ccccc1/C=N/NC(=O)c1ccc2c(c1)OCCO2 | -2.93
COc1cc2[nH]ccc(=O)c2cc1OC | 3.62
O=C(NC(=S)Nc1ccccc1Br)C1CCCC1 | 17
CCOC(=O)c1cc(/C(C)=N/OC(=O)c2ccc(Cl)cc2)on1 | 12
Cc1ccc(-c2nc(N)n(C(=O)c3ccco3)n2)cc1 | 24.9
O=C(CN1CCN(C(=O)c2ccco2)CC1)Nc1ccc(F)cc1F | -49.6
CCCc1ccccc1OCCNC(C)=O | 12.4
COc1ccc(CCN(Cc2cc3cc(C)ccc3[nH]c2=O)C(C)=O)cc1OC | -6.87
Cc1ccc(OCC2Cn3c(nc4c3c(=O)[nH]c(=O)n4C)O2)cc1C (stereo not drawn) | 3.15
O=C(CN1C(=O)NC2(CCOc3ccccc32)C1=O)c1ccc(F)c(F)c1 (stereo not drawn) | -47
CCOC(=O)C(O)(c1ccc(N=Cc2ccccc2O)c(C)c1)C(F)(F)F (stereo not drawn) | 11.1
O=C(CSc1nnc(SCc2ccccc2)s1)N/N=C/c1ccc(Cl)cc1Cl | -5.88
Cc1ccc(N(CC(=O)NCc2ccco2)C(=O)CCC(=O)Nc2ccccn2)cc1C | 4.43
O=C(c1ccccc1)C1CCCN(Cc2nc(-c3cnccn3)no2)C1 (stereo not drawn) | 10.2
O=C(Oc1ccc(C(=S)N2CCOCC2)cc1)c1ccccc1F | -5.36
CC(=O)N(Cc1cc2ccccc2[nH]c1=O)c1ccc(C)cc1 | -9.66
Cc1ccc(O)c(NC(=O)c2noc3c2CCCCC3)c1 | 7.08
Cc1cccc(NC(=O)N2CC3CC(C2)c2cccc(=O)n2C3)c1 (stereo not drawn) | 16.3
COc1ccc(Cl)cc1NC(=O)C(C)N1CCN(C/C=C/c2ccccc2)CC1.O=C(O)C(=O)O (stereo not drawn) | -63.4
Cc1cccc(C(=O)O/N=C2\CCS(=O)(=O)c3sccc32)c1 | 1.16
CCc1ccc(NC(=O)c2onc(C)c2Cl)cc1 | 0.736
Cc1cc(C)c(OCC(=O)Nc2nnc(-c3ccco3)o2)c(C)c1 | 1.74

SMILES | hERG current change (%, negative = inhibition) at 10uM [%]
COc1ccc(-c2cc(-c3nnc(COC(=O)c4ccc(O)cc4)o3)c3ccccc3n2)cc1OC | 16.9
CCOC(=O)N1CCN(CCC(=O)Nc2ccc(OC(F)(F)F)cc2)CC1 | -63.3
O=C(Nc1nc2c(ccc3ccccc32)s1)c1cc([N+](=O)[O-])ccc1N1CCOCC1 | 9.84
O=C(O)Cn1cc(C(=O)C2CC2)c2ccccc21 | 11.3
c1ccc2c(c1)C(=Nn1cnnc1)c1ccccc1-2 | 11.5
O=C(O)CCCNC1=NCCC1 | 20.6
COC(=O)c1cc(C)sc1NC(=O)CN1CCN(C(=O)C2CCCO2)CC1 (stereo not drawn) | -34.7
COc1ccc(S(=O)(=O)CCC(=O)NCCc2ccc(Cl)cc2)cc1 | -16.4
COc1ccc(N2CCN(Cc3oc(CO)cc(=O)c3O)CC2)cc1 | -7.53
O=[N+]([O-])c1cccc(-n2nnnc2CNCc2ccccc2)c1 | -16.7
CC1CC(C)CN(C(=O)CSc2ncnc3sccc23)C1 (stereo not drawn) | 16.7
COC(=O)[C@H]1C[C@@H]1[C@H](NS(=O)(=O)c1ccccc1)c1ccccc1 | 6.53
CCOc1ncccc1C(=O)OCC(=O)NCCc1ccc(S(N)(=O)=O)cc1 | -18.3
CC1CCCC(C)N1S(=O)(=O)c1ccc(NC(=O)CNC2CCCC2)cc1 (stereo not drawn) | -20.1
COc1ccccc1NS(=O)(=O)c1cccc(NC(=O)c2sc3ccccc3c2Cl)c1 | 6.42
CCc1ccc(OCc2ccc(C(=O)O)o2)cc1 | 23.2
COc1cccc(NC(=O)C2CCCN(S(=O)(=O)c3cccc4nonc34)C2)c1 (stereo not drawn) | 15.9
COC(=O)c1ccc(CNC(=O)C(NC(=O)c2ccco2)C(C)C)cc1 (stereo not drawn) | -1.29
COc1ccccc1CNC(=O)CCCNC(=O)c1ccc(Cl)cc1 | 5.99
COc1ccc(NS(=O)(=O)c2cn(C)cn2)c(OC)c1 | 19.5
C/C(=N\Nc1nc(Nc2ccccc2)nc(N2CCOCC2)n1)c1cccs1 | -8.97
CCOc1ccc(-c2cccc(NC(=O)c3cccs3)c2)nn1 | -33.8
CCN(Cc1ccccc1)C(=O)C1CCN(Cc2sccc2C)CC1.O=C(O)C(=O)O | -44.3

SMILES | hERG current change (%, negative = inhibition) at 10uM [%]
C=Cn1cc[n+](CC(=O)c2ccc(C)cc2)c1.[Br-] | 3.26
COc1ccc(CCCc2nnc(SCc3nc4ccccc4c(=O)[nH]3)n2C)cc1C | -22.6
O=C(Nc1ccccc1N1CCOCC1)c1ccc(Br)o1 | 1.26
COc1ccc(NC(=O)COc2ccccc2Cc2ccccc2)cc1S(N)(=O)=O | 3.31
CCOC(=O)C(C(=O)N(C)Cc1ccccc1)C1CCCCC1 (stereo not drawn) | -6.21
COc1ccc(C(=O)/C=C/c2ccc(-c3ccccc3)cc2)cc1CSCC(=O)O | 89
N#CCCN1CCN(Cn2c3ccccc3c3ccccc32)CC1 | -2.59
O=C(NC(=S)NC(c1ccccc1)c1ccncc1)c1ccccc1 (stereo not drawn) | -9.71
O=C(O)c1cccnc1SCC(=O)C12CC3CC(CC(C3)C1)C2 | -1.11
O=C(Nc1ccncc1)Nc1ccc(Br)cc1Cl | 12.1
COc1ccc(/C=N/N(C)C2=NS(=O)(=O)c3ccccc32)cc1OC | 12.8
CCSc1nnc(NC(=O)CSc2nc(CC)nc3c2c(=O)n(C)c(=O)n3C)s1 | 10.4
CCOc1ccc2[nH]c(=O)c(CN(CCOC)C(=O)N3CCOCC3)cc2c1 | 13.5
Cc1ccccc1-n1ncc2c1CC(C)(C)CC2NC(=O)c1ccncc1 (stereo not drawn) | -47.4
COc1ccc(CNC(=O)CCSCc2cccc(F)c2)cc1 | -11.2
CCCCNC(=S)N(C)/N=C/c1ccc(OCc2ccc(C(=O)OC)cc2)c(OC)c1 | 11.8
O=C1CC(N2CC=C(c3ccc(F)cc3)CC2)C(=O)N1c1ccc(F)cc1 (stereo not drawn) | -13.9
COC(=O)c1nc2n(n1)C(c1cc(OC)ccc1OC)C(C(=O)OC1CCCCC1)=C(C)N2 (stereo not drawn) | 11.4
Cl.Cn1c(=O)c2c(nc(N3CCCCC3)n2CCNC2=NCCC2)n(C)c1=O | 8.2
CC(C)(CO)NCC(O)COc1ccc2c(c1)CCC2 (stereo not drawn) | 2.25
CNNC(=S)Nc1cccc(C(F)(F)F)c1 | 7.59
